According to the supplement of paper PMC10126150:
Values marked as one replicate rest on one cluster of the flow cell; about a third of the high ones do not repeat.

Test system: ATP
Test: switch fluorescence ratio, 500 uM ATP over buffer (Cy3 cluster intensity, sum of 5 cycles each) (fold (ratio)); higher = stronger signal-on switching upon ATP binding; sequences stand for … in TCGTCGGCAGCGTCAGATGTGTATAAGAGACAGTTTTTTTTTTTTTTTTTTTTTTTTT…TC
Conditions: aptamer strand: ATP DNA aptamer (quencher-CACCTGGGGGAGTATTGCGGAGGAAGG + anchor), 100 nM annealed; ATP concentration: 500 uM; one replicate
Summary of the method: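 Exposure to 500 uM ATP lasted 15 min at 22 °C before imaging, and a selection-buffer image was taken beforehand, for Cy3-labelled switching-strand clusters on a modified Illumina MiSeq flow-cell annealed to 100 nM quencher-labelled ATP aptamer. Five buffer/ATP cycles were run with NaOH stripping and re-annealing between them. The fluorescence ratio per cluster is summed target-cycle over summed buffer-cycle Cy3 intensity, averaged per switch-domain sequence. Clusters outside 100-1000 RFU were excluded.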

Sequence	switch fluorescence ratio
ACTGGTAAA	0.993
GGCCTGTTCG	0.984
CCATTCAAG	1.01
ACCCTCGCTC	1.46
ATTACGAATG	0.976
TTAGCAAAGA	2.84
TGTTGTCAGT	0.95
TGTTGCCTCG	0.962
TATCTGGTTA	0.956
CACCAACCCG	1.17
GGTCGAGGTC	0.957
ATAATTTTCC	1.13
GGTGAGGAGG	0.992
TTGCGGTGAT	0.991
ACAGCAAATT	1.15
AGGATTAGAT	1.02
GATAGTAGGA	1
CTTGGTAGAG	0.964
AAATTGTCCT	1.09
CAGGCTATCA	1.02
TGGTCTACAG	0.999
ATGCAGGTGG	1.02

Sequence	switch fluorescence ratio
CATGAATCGC	1.05
GACATTAGCC	1.05
TCATGTTCCG	0.975
AGAGGGTTGA	1.03
AGAGTCATTG	0.989
TGCTTACCTG	1.01
CGGCGTACAC	1.2
TTTCGGGTGA	1.35
GAAATCGGTT	0.948
GGCCGTCAAA	0.954
ACTTCAATGG	0.992
TGGATCAAAC	0.958
GGTTGAGGAT	0.958
CGGTAAACAG	0.994
GAGGATTGAA	0.959
GCATGTTCCA	0.993
CACGATCGCC	1.1
AGTATTCGAG	0.999
AAAGCGTACC	1.31
TCATTGTGTA	0.959
ACCGCTTTGT	1.04
GGATCCCTTC	1.05

Sequence	switch fluorescence ratio
AGCATCTTGG	0.956
TGGATTGTGG	0.986
TACAGTGGAA	1.04
ATCCGATAAG	0.999
ACTGACTGA	1.18
ATTTCATTGG	0.939
GCTACCGGAC	1.73
AAGTCTGGGA	0.957
ACATACTTGA	1.13
TTTAGGAG	0.966
TTTTAGCCAA	0.978
TACCGTCGGT	1.01
CTCAATGTCT	0.975
ACTCCGGGGC	2.05
ATCCGATCGA	1.02
ATCGAGATGG	0.997
TCCGCTCGG	1.16
TCAGACAGGG	0.867
TGGAAAGAT	0.999
TTGCAAGTTC	1.15
CGGCCAACTG	0.992
ATAGAAAGTT	0.999

Sequence	switch fluorescence ratio
AGGCAGCTGC	1.01
AAAAGGGTGG	1
TGACACTTCG	0.939
TTCTTGGGG	1.01
CATATGATGG	0.991
GGCGTTATTG	0.988
CGTGGGGCCT	1.01
CCCGTCGAGC	1.11
ACTGAAGTGG	1.05
CTGGGAAAAC	1.02
AGGTTCGGCT	0.974
ATAGTGCACC	0.973
ATCGCCCTG	1
GGAAAATTCC	1.11
GTCTGCTTGG	1.02
CAATAGAATC	1.02
TGTCACTGCT	1.03
TTTCCATCGA	1.14
CATCATGGGT	1.01
